Broadly, the IC50 is the midpoint of a concentration-inhibition curve.

Lines with a small IC50 respond at low doses; where the fit passes the top or lowest dose, that dose stands as a limit. For AUC the same curve is integrated over the 256-fold range of doses and scaled to a fraction; values near 1 show little effect. Any top dose called inferred was calculated from the reported fits. Some results are limits rather than exact numbers.

In the supplement of paper PMC4967469 one finds AUC and IC50 data, which are given here for 69 cell lines.

Compound in the assay: N.N.[Cl][Pt][Cl] [Cisplatin]
Put plainly: Viability of human cancer cell lines after 72 h of drug (GDSC screen). As to conditions: top dose inferred. The procedure:
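Human cancer cell lines in 384-well plates, medium with 10% serum, drug for 72 h over a 256-fold dose range (nine 2-fold or five 4-fold steps up to the top dose). Adherent lines were fixed and stained with the nucleic acid dye Syto60, suspension lines read with resazurin; signal relative to control wells, capped at 0 and 100%. One two-parameter sigmoid per drug and line, fitted in a mixed model over all curves with the slope shared within a line.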
As to “42-MG-BA (glioma, adherent, top dose 10 µM)”, the AUC was determined as 0.924 and the IC50 was greater than 10 µM.
Turning to “201T (lung adenocarcinoma, adherent, top dose 10 µM)”, the AUC amounted to 0.792 and the concentration for half-maximal inhibition (IC50) was found to be 5.89 µM.
“451Lu (melanoma, adherent, top dose 10 µM)”: the AUC was determined as 0.818 and the IC50 turned out to be 5.32 µM.
As to “639-V (bladder, adherent, top dose 10 µM)”, the AUC was 0.712 and the IC50 turned out to be 2.22 µM.
As for “647-V (bladder, adherent, top dose 10 µM)”, the AUC was found to be 0.871 and the IC50 is 9.52 µM.
Take “697 (lymphoblastic leukaemia, suspension, top dose 10 µM)”: the AUC worked out at 0.8 and the IC50 stood at 3.76 µM.
As for “5637 (bladder, adherent, top dose 10 µM)”, the AUC came out at 0.808 and the IC50 was 4.59 µM.
Turning to “8305C (thyroid, adherent, top dose 10 µM)”, the AUC was 0.946 and the IC50 is greater than 10 µM.
For “8505C (thyroid, adherent, top dose 10 µM)” the same measures were 0.865 and 9.75 µM.
On to “23132-87 (stomach, adherent, top dose 10 µM)”, for which the AUC amounted to 0.969 and the IC50 is greater than 10 µM.
In the same order, the values of “A3-KAW (B-cell lymphoma, suspension, top dose 10 µM)” are 0.839 and 4.93 µM.
Regarding “A4-Fuk (B-cell lymphoma, suspension, top dose 10 µM)”, the AUC is 0.85 and the IC50 came to 8.13 µM.
In the same order, the values of “A101D (melanoma, adherent, top dose 10 µM)” are 0.732 and 3.39 µM.
In the same order, the values of “A253 (head and neck, adherent, top dose 10 µM)” are 0.862 and 8.2 µM.
As to “A375 (melanoma, adherent, top dose 10 µM)”, the AUC was determined as 0.634 and the IC50 stood at 1.36 µM.
In the same order, the values of A388 (skin, adherent, top dose 10 µM) are 0.874 and greater than 10 µM.
On to “A427 (non-small cell lung carcinoma, adherent, top dose 10 µM)”, for which the AUC is 0.937 and the IC50 was greater than 10 µM.
As to A431 (skin, adherent, top dose 10 µM), the AUC stood at 0.959 and the concentration for half-maximal inhibition (IC50) was greater than 10 µM.
On to A498 (kidney, adherent, top dose 10 µM), for which the AUC is 0.878 and the IC50 is greater than 10 µM.
In the same order, the values of A704 (kidney, adherent, top dose 10 µM) are 0.97 and greater than 10 µM.
“A2058 (melanoma, adherent, top dose 10 µM)”: the AUC worked out at 0.79 and the IC50 came to 3.92 µM.
Consider “ABC-1 (lung adenocarcinoma, adherent, top dose 10 µM)”, for which the AUC stood at 0.707 and the IC50 came to 2.73 µM.
ACHN (kidney, adherent, top dose 10 µM): the AUC turned out to be 0.832 and the half-inhibitory concentration (IC50) amounted to 7.66 µM.
For AGS (stomach, adherent, top dose 10 µM) the same measures were 0.92 and greater than 10 µM.
For the cell line “ALL-PO (lymphoblastic leukaemia, suspension, top dose 10 µM)”, the AUC was 0.872 and the IC50 is greater than 10 µM.
For “ALL-SIL (T-cell leukaemia, suspension, top dose 10 µM)”, the AUC worked out at 0.907 and the IC50 was greater than 10 µM.
For “AM-38 (glioma, semi-adherent, top dose 10 µM)” the same measures were 0.896 and greater than 10 µM.
For “AMO-1 (haematopoietic neoplasm, suspension, top dose 10 µM)” the same measures were 0.966 and greater than 10 µM.
In the same order, the values of “AN3-CA (endometrium, adherent, top dose 10 µM)” are 0.84 and 7.82 µM.
On to “ARH-77 (myeloma, suspension, top dose 10 µM)”, for which the AUC turned out to be 0.892 and the IC50 was greater than 10 µM.
With “ASH-3 (thyroid, adherent, top dose 10 µM)”, the AUC stood at 0.857 and the IC50 was 8.16 µM.
Take “ATN-1 (T-cell lymphoblastic leukaemia, suspension, top dose 10 µM)”: the AUC is 0.883 and the IC50 is 9.54 µM.
For “AU565 (breast, adherent, top dose 10 µM)” the same measures were 0.845 and 8.46 µM.
In the same order, the values of “AsPC-1 (pancreas, adherent, top dose 10 µM)” are 0.899 and greater than 10 µM.
In the same order, the values of “BALL-1 (B-cell leukaemia, suspension, top dose 10 µM)” are 0.923 and 7.9 µM.
Consider “BB30-HNC (head and neck, adherent, top dose 10 µM)”, for which the AUC amounted to 0.825 and the IC50 came out at 5.84 µM.
In the same order, the values of “BB49-HNC (head and neck, adherent, top dose 10 µM)” are 0.941 and greater than 10 µM.
Take “BB65-RCC (kidney, adherent, top dose 10 µM)”: the AUC amounted to 0.729 and the IC50 amounted to 3.13 µM.
In the same order, the values of “BC-1 (B-cell lymphoma, suspension, top dose 10 µM)” are 0.961 and greater than 10 µM.
Consider “BE2-M17 (neuroblastoma, adherent, top dose 10 µM)”, for which the AUC turned out to be 0.899 and the IC50 was greater than 10 µM.
For “BE-13 (lymphoblastic leukaemia, suspension, top dose 10 µM)” the same measures were 0.944 and greater than 10 µM.
In the same order, the values of “BFTC-905 (bladder, adherent, top dose 10 µM)” are 0.747 and 2.82 µM.
For “BHT-101 (thyroid, adherent, top dose 10 µM)” the same measures were 0.747 and 3.29 µM.
Regarding “BICR10 (head and neck, adherent, top dose 10 µM)”, the AUC came out at 0.886 and the IC50 is greater than 10 µM.
For “BICR22 (head and neck, adherent, top dose 10 µM)” the same measures were 0.776 and 4.59 µM.
In the same order, the values of “BICR78 (head and neck, adherent, top dose 10 µM)” are 0.811 and 6.38 µM.
For “BL-41 (Burkitt lymphoma, suspension, top dose 10 µM)” the same measures were 0.877 and 6.11 µM.
Take “BT-20 (breast, adherent, top dose 10 µM)”: the AUC came to 0.922 and the IC50 is greater than 10 µM.
For “BT-474 (breast, adherent, top dose 10 µM)” the same measures were 0.986 and greater than 10 µM.
For “BT-483 (breast, adherent, top dose 10 µM)” the same measures were 0.972 and greater than 10 µM.
For “BT-549 (breast, adherent, top dose 10 µM)”, the AUC came out at 0.907 and the IC50 is greater than 10 µM.
In the same order, the values of “BV-173 (chronic myeloid leukaemia, suspension, top dose 10 µM)” are 0.791 and 3.91 µM.
“Becker (glioma, adherent, top dose 10 µM)”: the AUC is 0.894 and the IC50 was greater than 10 µM.
Regarding “BxPC-3 (pancreas, adherent, top dose 10 µM)”, the AUC came out at 0.837 and the IC50 was 7.84 µM.
For the cell line “C2BBe1 (large intestine, adherent, top dose 10 µM)”, the AUC was 0.881 and the IC50 was greater than 10 µM.
As for C3A (liver, adherent, top dose 10 µM), the AUC was determined as 0.984 and the IC50 was greater than 10 µM.
On to “C32 (melanoma, adherent, top dose 10 µM)”, for which the AUC was 0.817 and the half-inhibitory concentration (IC50) was determined as 6.05 µM.
On to “C-4-I (cervix, adherent, top dose 10 µM)”, for which the AUC worked out at 0.889 and the IC50 is greater than 10 µM.
For “C-33-A (cervix, adherent, top dose 10 µM)” the same measures were 0.775 and 3.98 µM.
In the same order, the values of “CA46 (Burkitt lymphoma, suspension, top dose 10 µM)” are 0.972 and greater than 10 µM.
For “CADO-ES1 (Ewing sarcoma, suspension, top dose 10 µM)”, the AUC was determined as 0.851 and the half-inhibitory concentration (IC50) amounted to 7.84 µM.
For “CAKI-1 (kidney, adherent, top dose 10 µM)” the same measures were 0.815 and 9.5 µM.
In the same order, the values of “CAL-12T (non-small cell lung carcinoma, adherent, top dose 10 µM)” are 0.981 and greater than 10 µM.
Take “CAL-27 (head and neck, adherent, top dose 10 µM)”: the AUC turned out to be 0.813 and the IC50 amounted to 5.51 µM.
As to “CAL-29 (bladder, adherent, top dose 10 µM)”, the AUC came out at 0.847 and the IC50 stood at 8.27 µM.
“CAL-33 (head and neck, adherent, top dose 10 µM)”: the AUC came out at 0.831 and the IC50 was 6.33 µM.
For “CAL-39 (cervix, adherent, top dose 10 µM)” the same measures were 0.926 and greater than 10 µM.
For “CAL-51 (breast, adherent, top dose 10 µM)” the same measures were 0.883 and 8.22 µM.
In the same order, the values of “CAL-62 (thyroid, adherent, top dose 10 µM)” are 0.921 and greater than 10 µM.
